Data as given in publication PMC4336329 (PLoS ONE, 2015).
About 14,000 (4.5%) of roughly 310,000 compounds showed an effect of 50% or more. The effect is printed as a negative number. This is one part of the list.

biological target: human ether-à-go-go-related gene (hERG) potassium channel (human, UniProt Q12809); assay: primary screen, population patch clamp on CHO cells stably expressing hERG
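Further: peak tail current of the secondary pulse compared with the same well before compound.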

human ether-à-go-go-related gene (hERG) potassium channel, sequence (Q12809 whole entry, looked up): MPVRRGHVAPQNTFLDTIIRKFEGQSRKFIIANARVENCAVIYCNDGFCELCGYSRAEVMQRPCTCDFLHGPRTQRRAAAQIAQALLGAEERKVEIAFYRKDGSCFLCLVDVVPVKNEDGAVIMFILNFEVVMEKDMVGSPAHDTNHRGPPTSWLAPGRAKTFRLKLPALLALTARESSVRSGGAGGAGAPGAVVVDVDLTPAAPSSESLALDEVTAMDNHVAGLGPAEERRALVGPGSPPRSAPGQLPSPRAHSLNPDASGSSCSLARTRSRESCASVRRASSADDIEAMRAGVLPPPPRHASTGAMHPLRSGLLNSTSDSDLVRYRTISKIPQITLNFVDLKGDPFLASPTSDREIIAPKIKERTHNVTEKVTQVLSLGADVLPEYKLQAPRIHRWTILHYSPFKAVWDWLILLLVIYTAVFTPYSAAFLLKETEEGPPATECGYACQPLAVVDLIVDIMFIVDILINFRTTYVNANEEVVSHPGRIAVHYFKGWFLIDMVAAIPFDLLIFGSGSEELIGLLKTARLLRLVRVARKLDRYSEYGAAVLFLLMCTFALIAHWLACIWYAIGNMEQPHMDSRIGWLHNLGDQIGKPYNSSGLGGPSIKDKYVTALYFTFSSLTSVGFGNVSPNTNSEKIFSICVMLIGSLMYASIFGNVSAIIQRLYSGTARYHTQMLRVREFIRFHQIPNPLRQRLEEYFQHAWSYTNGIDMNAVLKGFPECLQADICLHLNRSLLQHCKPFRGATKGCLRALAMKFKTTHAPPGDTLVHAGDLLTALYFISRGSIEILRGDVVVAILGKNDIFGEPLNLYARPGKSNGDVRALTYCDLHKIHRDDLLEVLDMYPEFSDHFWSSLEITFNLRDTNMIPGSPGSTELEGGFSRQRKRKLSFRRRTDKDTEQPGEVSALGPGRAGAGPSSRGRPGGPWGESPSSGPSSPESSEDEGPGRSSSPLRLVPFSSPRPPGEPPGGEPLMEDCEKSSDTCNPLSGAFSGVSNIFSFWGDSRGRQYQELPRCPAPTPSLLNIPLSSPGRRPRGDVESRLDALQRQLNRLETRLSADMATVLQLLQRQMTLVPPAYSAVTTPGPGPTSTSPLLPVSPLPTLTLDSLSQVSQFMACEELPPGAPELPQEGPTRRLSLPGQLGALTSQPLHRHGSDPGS

Row | SMILES | hERG current change (%, negative = inhibition) at 10uM
1 | COc1ccc(Cl)cc1N(CC(=O)N1CCCC1)S(=O)(=O)c1ccc(C)cc1 | -8.27%
2 | C=CCn1c(=N)n(CC(O)c2ccco2)c2ccccc21.Cl (centres unmarked) | -23.1%
3 | CC(=O)c1cccc(NS(=O)(=O)c2ccc(NC(=O)N3CCCCC3)cc2)c1 | 15.6%
4 | Clc1ncnc2scc(-c3ccccc3)c12 | 1.01%
5 | CC1CCN(C(=O)CSc2nc3c(cnn3-c3ccccc3)c(=O)[nH]2)CC1 | 3.08%
6 | CCOC(=O)c1c(NC(=S)NNS(=O)(=O)c2ccc(Br)cc2)sc2c1CCCCC2 | 20.1%
7 | CCOc1ccc(NC(=O)Cc2nnc(SCC(=O)N3CCOCC3)n2C)cc1 | 9.37%
8 | CCOc1cccc(NC(=O)/C(C#N)=C/c2cccnc2)c1 | -35.4%
9 | CCc1cccc(C)c1NC(=O)CSc1nnc(-c2ccco2)n1N | -3.1%
10 | C(=N\Nc1nc2ccccc2[nH]1)/c1cccc2nccnc12 | 11.9%
11 | Cc1ccccc1N(CC(=O)NC1CCCC1)C(=O)CS(=O)CC(=O)Nc1ccc2c(c1)OCO2 (centres unmarked) | -8.74%
12 | COc1cc(/C=C2\SC(=S)N(CC(=O)NC3=NCCS3)C2=O)cc(OC)c1OC | 23.5%
13 | Cc1ccc(C)c(C(=O)C(C)OC(=O)CN2C(=O)NC3(CC(C)CC(C)(C)C3)C2=O)c1 (centres unmarked) | 23.2%
14 | O=C(CNC(=S)N(CCCN1CCOCC1)Cc1cccs1)NCCN1CCOCC1 | 9.17%
15 | CCn1cc(/C=C/C(=O)c2ccc(O)cc2)c(C)n1 | 1.71%
16 | CCOC(=O)Cn1c(=O)n(Cc2ccc(C)cc2)c(=O)c2cccnc21 | 2.71%
17 | COc1ccc2nc(-c3ccccc3)cc(C(=O)OCC(=O)N3CC(C)OC(C)C3)c2c1 (centres unmarked) | 0.702%
18 | Cc1noc(C)c1S(=O)(=O)N1CCCC(C(=O)NCCc2ccc(Cl)cc2)C1 (centres unmarked) | -9.43%
19 | COC(=O)c1cc(OC)c(OC)cc1NC(=O)Nc1ccc(OC)cc1 | 7.34%
20 | COCCN(C(=O)COC(=O)c1cc2c(s1)CCC2)c1c(N)n(Cc2ccccc2)c(=O)[nH]c1=O | -4.61%
21 | COc1ccc(C(CCO)NC(=O)c2cccs2)cc1OC (centres unmarked) | -1.34%
22 | O=C(NCc1ccccn1)C12CC3CC(CC(C3)C1)C2 | 13.8%
23 | COc1ccccc1C(CNC(=O)c1ccc(-c2ccccc2Cl)o1)N1CCCC1 (centres unmarked) | -72.2%

Row | SMILES | hERG current change (%, negative = inhibition) at 10uM
24 | COCC(=O)Nc1cccc2ccccc12 | -9.72%
25 | COc1ccc(Oc2cccc(Cl)c2CNC(=O)c2ccccc2C(=O)O)cc1 | 4.98%
26 | Cc1ccc(-n2ncc(C#N)c2/N=C/N2CCOCC2)cc1 | -10.2%
27 | COc1ccc(CCn2c(NN=C3CCCC3)nc3c2c(=O)[nH]c(=O)n3C)cc1 | -1.63%
28 | CCOC(=O)C1=C(CP(=O)(c2ccccc2)c2ccccc2)NC(=O)NC1c1ccc(OC)cc1 (centres unmarked) | -26.4%
29 | Cc1ccc(NC(=S)NC(NC(=O)Cc2cccc3ccccc23)C(Cl)(Cl)Cl)cc1 (centres unmarked) | 12.1%
30 | COCCCNS(=O)(=O)c1ccc(OC)c(Cl)c1Cl | 0.957%
31 | CC1(C)CC(=O)c2sc(NC(=O)Cc3cccs3)nc2C1 | -0.976%
32 | CC(NC(=O)CN1CCN(Cc2ccc(Cl)cc2)C1=O)c1ccc2c(c1)OCCO2 (centres unmarked) | -10.4%
33 | CCN(CC)c1nc(N)c2c(N)n(-c3ccccc3C)c(=S)c(C#N)c2c1C#N | 10.1%
34 | NNC(=S)NC1CC2CC1C1C=CCC21 (centres unmarked) | 9.2%
35 | COc1ccccc1N1CC(C(=O)Nc2nnc(SC)s2)CC1=O (centres unmarked) | 16.9%
36 | O=C(CCN1CCOCC1)NNC(=O)Nc1cccc(Cl)c1 | 21.2%
37 | CCOC(=O)C1=C(C)NC(=O)NC1c1ccc2c(c1)OCO2 (centres unmarked) | -2.72%
38 | COc1ccc(NC(=O)Nc2cnccn2)cc1 | 9.12%
39 | COc1ccccc1C(=O)Nc1ccc(NC(=O)c2ccco2)cn1 | 9.25%
40 | COc1ccccc1N(CC(=O)Nc1ccccc1C)S(C)(=O)=O | -0.331%
41 | O=C(NC1CCCCCC1)c1cccnc1Sc1ccccc1 | -15.4%
42 | Br.CC(Sc1nnc(COc2ccc3ccccc3c2)n1C)C(=O)O (centres unmarked) | 8.48%
43 | Cn1cccc1C(=O)NC(=O)COC(=O)C12CC3CC(CC(O)(C3)C1)C2 | 3.15%
44 | COc1ccc(NC(=O)c2ccc3c(c2)C(=O)N(CC2CCCO2)C3=O)cc1O (centres unmarked) | -16%
45 | COc1ccc(N2C(=O)CSCC2=O)cc1OC | 8.4%
46 | COc1ccc(NC(=O)c2ccc(-n3nc(C)c[n+]3[O-])cc2)cc1 | 0.163%

Row | SMILES | hERG current change (%, negative = inhibition) at 10uM
47 | CC(C)CC(CO)N1CCN(C(=O)c2cccc(C(F)(F)F)c2)CCC1=O (centres unmarked) | 6.77%
48 | COc1cc(NC(=S)NC(=O)C(C)C)ccc1NC(=O)c1cc2ccccc2o1 | -1.06%
49 | Cc1nc(NC(=O)C2CC2)sc1C(=O)Nc1ccccc1 | 11.6%
50 | COc1ccc(OCC(=O)N/N=C/c2ccc(OC)c(OC)c2C(=O)O)cc1 | -0.0673%
51 | CCOC(=O)C1CCN(CC(O)COCc2cccs2)CC1 (centres unmarked) | -38%
52 | CCC(C(=O)Nc1sc(C(N)=O)c(C)c1C(=O)OC)c1ccccc1 (centres unmarked) | -17.5%
53 | CCC1(c2ccc(F)cc2)NC(=O)N(CC(=O)NCc2ccc(C)cc2)C1=O (centres unmarked) | 7.48%
54 | CC(C)CN1C(=O)C(=O)N(CC(=O)c2ccc3c(c2)OCO3)C1=O | -12.4%
55 | COc1ccc(C2CC(O)(C(C)(C)O)NO2)cc1 (centres unmarked) | 8.55%
56 | O=C(O)/C(=C\c1ccccc1)c1ccc2ccccc2c1 | 8.85%
57 | O=C(CN1C(=O)C2CCCCC2C1=O)Nc1ccc(S(=O)(=O)Nc2ncccn2)cc1 (centres unmarked) | 29.9%
58 | CS(=O)(=O)N(CC(=O)N/N=C/c1cc([N+](=O)[O-])ccc1Cl)c1ccccc1 | 13.3%
59 | COc1cccc(CC(NC(C)=O)C(=O)NC2CCN(C(=O)C3CC3)CC2)c1OC (centres unmarked) | 24.3%
60 | CC(C)(C)C(=O)N1CCN(c2nc3ccccc3o2)CC1 | -19.3%
61 | Cc1ccsc1C(=O)C1CCCN(Cc2cccn2-c2ccc(Cl)cn2)C1 (centres unmarked) | -77.6%
62 | Cc1ccccc1C(=O)N1CCC(C(=O)Nc2ccc(F)cc2)CC1 | -9.14%
63 | CC(=O)C[C@H]1c2ccccc2S(=O)(=O)N1C1CCCCC1 | -4.43%
64 | C=CCn1c(=S)[nH]c2sccc2c1=O | 11.7%
65 | Cl.NCCCC[C@H](NC(=O)C1CCNCC1)c1nnc([C@@H](N)CO)o1 | 22%
66 | Cc1cc(C)cc(OCC(=O)O/N=C(\N)c2ccccc2Cl)c1 | -13.6%
67 | CC(=O)Nc1ccc(NC(=O)c2ccccc2N(C)S(=O)(=O)c2ccc(C)cc2)cc1 | -0.403%
68 | CCOC(=O)C1CCN(S(=O)(=O)c2ccc(OCC(=O)OC)cc2)CC1 | -9.54%
69 | COC(=O)CNC(=O)CSc1nnc2cc(C)c3ccccc3n12 | -1.23%

Row | SMILES | hERG current change (%, negative = inhibition) at 10uM
70 | O=C(NCc1ccccn1)c1cc(Cl)ccc1OCc1ccccc1 | -35.5%
71 | COc1ccc(NC(=O)Cn2cccc2)cc1Cl | 1.53%
72 | O=C(/C=C/Nc1ccccc1)c1ccccc1 | -0.634%
73 | O=C(Nc1ccccc1)N(c1ccccc1)C1C=CS(=O)(=O)C1 (centres unmarked) | 9.87%
74 | CN(C)CCNC(=O)Nc1ccc(Cl)c(Cl)c1 | -23.4%
75 | COc1ccccc1NC(=O)NC1CCCc2ccccc21 (centres unmarked) | 10.9%
76 | CCCC1=NN2C(=N)/C(=C\c3cc(C)n(-c4cc(C)cc(C)c4)c3C)C(=O)N=C2S1 | -10.4%
77 | COc1ccccc1NC(=O)CCN1C(=O)c2ccccc2S1(=O)=O | 6.41%
78 | Cc1ccccc1NC(=O)CC1SC(=O)N(c2ccccc2)C1=O (centres unmarked) | 15.6%
79 | Cc1ccc(OC(=O)c2sc3ncn(C)c(=O)c3c2C)cc1 | -0.804%
80 | CSc1ccc(/C=N/Nc2nc(C)cc(=O)[nH]2)cc1 | -34.1%
81 | Cc1cc(NC(=O)c2ccco2)ncc1NC(=O)Cc1ccccc1 | -14.4%
82 | CC[C@@]1(c2ccccc2OC)ON(c2ccccc2C(F)(F)F)C1=O | 6.93%
83 | C1COCCO1.O=C(Nc1nc(-c2ccc(S(=O)(=O)N3CCOCC3)cc2)cs1)c1ccccc1 | 1.09%
84 | CCOc1ccc(Nc2nc(NCc3ccco3)nc(N)c2[N+](=O)[O-])cc1 | 8%
85 | O=C(c1ccco1)N1CCN(C(=O)C(Sc2ccccc2)c2ccccc2)CC1 (centres unmarked) | -33.1%
86 | CSCCC1NC(=O)N(CC(=O)Nc2ccc(Br)cc2Br)C1=O (centres unmarked) | -27.3%
87 | CCOC(=O)N1CCN(S(=O)(=O)c2ccc3[nH]c(=O)sc3c2)CC1 | 2.33%
88 | COC(=O)c1ccc(OCCOc2ccccc2C)cc1 | 5%
89 | CCCOc1ccc(/C=C/C(=O)Nc2ccc([N+](=O)[O-])cc2)cc1 | 7.23%
